Assay results taken from the supplement of paper PMC3334620.
Over roughly 33,000 sequences, “E-score (-0.5 to 0.5)” has its median near -0.021; the highest 2% begin near 0.32. The list shows a part of the results.

Biological target: T1, Zap1 (UniProt P47043)
T1 sequence: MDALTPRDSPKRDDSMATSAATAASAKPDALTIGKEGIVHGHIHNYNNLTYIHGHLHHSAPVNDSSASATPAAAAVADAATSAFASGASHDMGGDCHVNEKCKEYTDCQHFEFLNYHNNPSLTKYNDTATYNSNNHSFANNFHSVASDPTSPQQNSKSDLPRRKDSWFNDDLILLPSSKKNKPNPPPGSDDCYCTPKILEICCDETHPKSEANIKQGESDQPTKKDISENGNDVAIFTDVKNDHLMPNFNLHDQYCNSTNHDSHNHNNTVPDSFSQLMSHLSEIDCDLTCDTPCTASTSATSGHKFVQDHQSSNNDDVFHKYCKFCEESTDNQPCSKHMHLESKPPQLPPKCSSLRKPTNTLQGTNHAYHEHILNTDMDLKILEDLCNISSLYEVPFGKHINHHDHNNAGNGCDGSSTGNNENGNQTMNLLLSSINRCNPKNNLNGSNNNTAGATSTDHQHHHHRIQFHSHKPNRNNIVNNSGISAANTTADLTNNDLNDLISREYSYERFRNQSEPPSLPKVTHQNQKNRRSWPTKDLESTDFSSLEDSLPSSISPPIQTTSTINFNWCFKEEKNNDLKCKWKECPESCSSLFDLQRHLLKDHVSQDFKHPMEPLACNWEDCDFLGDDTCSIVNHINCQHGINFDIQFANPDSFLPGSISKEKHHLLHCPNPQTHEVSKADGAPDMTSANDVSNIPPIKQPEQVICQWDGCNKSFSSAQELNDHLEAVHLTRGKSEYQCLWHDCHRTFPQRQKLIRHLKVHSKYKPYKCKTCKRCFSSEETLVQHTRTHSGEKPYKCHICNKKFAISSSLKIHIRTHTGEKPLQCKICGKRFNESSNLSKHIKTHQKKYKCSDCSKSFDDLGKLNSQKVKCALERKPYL
Assay: PBM E-score (8-mer binding enrichment) (E-score (-0.5 to 0.5)); higher = stronger / more preferred TF binding; most listed sequences are background and not binding sites
Conditions: protein concentration: 200 nM; construct: GST-full length
How it was run: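 Bound GST-tagged yeast transcription factors, applied at about 100-200 nM to double-stranded universal all-10-mer Agilent arrays, were detected with fluorescent anti-GST. Scans were normalised with masliner. A modified Wilcoxon-Mann-Whitney statistic, the E-score, was assigned to each ungapped eight-base word pooled with its reverse complement by the Universal PBM Analysis Suite.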

Sequence | PBM E-score
TGTCAAAA | 0.153
ATTTTGGA | 0.115
CACTTCCC | -0.0107
AATTGTAT | -0.157
AAAAAAGG | 0.28
CTGAAATC | -0.086
CTCTAGGA | -0.227
AGCCCTGA | -0.131
AGGAATCA | 0.116
CCTTTGCG | 0.158
AATTCTAT | -0.0635
GGCCCGTA | -0.0563
GAGTCGTA | -0.142
ACTGAATC | -0.0382
GTTGTGTA | 0.138
TCCCGGCA | -0.355
TCTAACAA | 0.0492
CCAATCAC | -0.0499
CAAGAAAG | 0.107
CCACCCCC | -0.194
CTTGTATA | -0.0122
AGGAACCA | 0.0162
GTCTGTGA | 0.196
ATGTGCTG | 0.0861
AGTACTGC | -0.161

Sequence | PBM E-score
ACCTGCAT | 0.153
CTAATAAG | 0.0363
GGTCCGCA | 0.168
AGGCAGTC | -0.266
ATCCTCAT | -0.205
CCAACGTC | -0.216
CCTTCTCC | -0.165
CTCAATTA | 0.0765
CGACACGA | 0.0841
AACGAAGC | -0.0293
AAACCTGT | 0.0581
CAGACGGA | -0.0953
ACATATTC | 0.0274
ACTAGCAT | -0.128
CGCATACC | 0.226
AGGCGTAA | -0.126
AAGGCATG | -0.161
GAGTCGCA | -0.302
GGCAATGA | -0.157
CAGGTGAG | -0.253
AAAGTTTC | 0.122
CAAGTACA | -0.0513
CACGCTGG | -0.141
GGCCCCAC | -0.102
CTGACTTC | -0.14

Sequence | PBM E-score
AGCAACCG | -0.0288
CATCAGGG | 0.124
ACCCTCCA | 0.341
AACGGGCT | -0.184
GGTGATTA | 0.2
AATCGGCC | -0.107
CCGATCCA | -0.103
ATCAGACA | -0.126
AACTTGCG | -0.0906
CTAGTTAC | 0.138
AAGGATTA | 0.0673
GTACATTA | 0.262
AGGTTGAC | 0.0525
CTCATGAA | -0.0356
AGTTTGTG | -0.0265
ATAAACAA | 0.201
AGGGATAT | -0.0838
CAGGGGCA | -0.192
CTCCTTCA | -0.168
CCCATGGC | 0.146
GTCAAACA | -0.0478
GCGTAACA | -0.135
AATTTGCA | -0.116
CATGTGCC | -0.165
CCGTATCC | 0.12

Sequence | PBM E-score
ATCCACGG | -0.0993
GTCCCGTA | -0.163
CACACTAC | 0.103
AATTTAAC | 0.267
GTAGCATA | -0.115
TTAAAAAA | 0.253
CGAGCGAG | 0.122
GTAAGGAA | 0.0325
ACCCCGTG | 0.28
CCGCTGGA | -0.159
CGTAATAC | 0.0784
ATTATTCG | 0.167
CTCCAGGC | -0.0429
CTTGCGGC | -0.201
GGCAGCAA | -0.0446
AATCCCGG | -0.0056
GGCCGGCC | 0.0258
ACACCCTC | 0.312
ATGCGACA | -0.013
CTTCTGCA | -0.151
GCGAACGA | -0.0105
ACAATTTA | 0.127
AACGCACG | -0.062
GAATCTGA | -0.144
TCACACAA | -0.0334

Sequence | PBM E-score
CACGAGCC | -0.257
AAGTTTGA | -0.0775
AGCTTGCA | -0.0983
ACGTCCGA | -0.108
AGTCTTAC | -0.146
AAGATGTC | -0.155
AATCGTGT | -0.0802
CTTTCCAA | 0.0741
AAGCACAT | -0.133
AGACGTCA | -0.19
AACTCGGA | 0.00302
CATGGTGG | -0.122
CGTATTCC | -0.062
GCAGACCC | 0.156
CGGCAGCC | -0.0872
AGTCCATA | -0.0532
AATCTTAC | 0.0643
ACTCGGCT | -0.117
GATCCGAC | -0.236
AGAGATTA | -0.0587
ACCCGACG | 0.111
CATAGGAG | -0.0334
ACTAACCA | 0.282
GCGCCTAA | 0.0328
CTCACAGC | 0.0226

Sequence | PBM E-score
ATCTGCGG | 0.188
ACCAATTG | 0.0665
CACCGAAA | 0.211
AAATCCTA | 0.0285
ACGCCTCC | -0.219
ATCCCCAG | -0.166
AGAACCGG | -0.0565
AGCCGTTG | -0.0541
AGGGGGAG | -0.289
ACTGAAGA | 0.0987
ATCTGAAT | 0.0618
CCGTTGCC | -0.312
CCCGGCGC | -0.2
GGCTGTCA | -0.0697
ACAGGGAG | -0.211
AGTGCAGG | -0.0594
CCGAACTC | -0.0177
AGATACCA | 0.137
ACTCTCAT | -0.0595
AGCGGAAA | 0.0362
CCATGTAA | 0.0197
TAAGGCAA | -0.0488
ATACCTTA | 0.184
TCAGGCCA | -0.212
AGTGTTAG | 0.157

Sequence | PBM E-score
AGTCATTG | -0.136
CCACGGCA | -0.076
GGGCTTAC | -0.0196
AAGGTGTG | -0.0153
CCCCTCAA | -0.068
CTACGTCC | -0.0484
GTACCCCA | 0.35
ACAGGGCT | -0.17
ACATTACC | 0.116
ACGTAGCC | -0.161
ATTTAAGA | -0.0597
ATTAGCCA | 0.0457
GTCTATCA | -0.0328
CCGGGGAC | -0.154
ACCTCGAA | 0.279
ACAGGAAA | 0.0153
ACATGATA | 0.0816
GCTGTTCA | 0.0408
GAATACAC | -0.0335
ACAGAATA | 0.028
GCAAGTGA | -0.0999
TAGGACAA | -0.015
AGGTTACA | 0.453
CCCGTGGC | -0.133
GCCACCTA | -0.103

Sequence | PBM E-score
AATCCAAA | 0.167
CATGGGCA | -0.138
GTGCAGCA | -0.159
AATTCACG | 0.00938
CAACCTAC | 0.0668
AAGTAGGG | -0.00414
AACTTTTC | 0.118
AACTGGGC | -0.173
AGGGCCGG | -0.0152
AACATCCC | -0.00893
GGGACGCA | -0.117
ACGAGAAT | -0.0885
CAGTATTA | 0.153
AATTGACC | 0.171
CTATCCCC | -0.284
CGCACTAG | 0.0423
CGCTCTAG | -0.202
AGGTTCCC | 0.122
CAGGACGA | -0.112
AAACTGCA | 0.00332
AGAGCTAT | -0.113
ACCGGAAG | 0.0591
CCTACTGC | -0.231
CATCCCTA | -0.134
GTCTACAC | -0.0912

Sequence | PBM E-score
AACTAACA | 0.153
AATATCCG | 0.123
GTCAGTAA | -0.0455
AACCACTC | 0.289
AGTAACCA | 0.387
CGAGCGAC | -0.234
AAGCATCT | -0.198
CCCTATCA | -0.0341
ACCTATGA | 0.17
ACAATTGT | 0.0739
CGCGTTTC | -0.0748
AGCGGTGC | -0.176
GATATTAC | 0.134
AATCGTAT | -0.0933
AGCGGCAC | -0.168
CTAGGCTA | -0.0397
CATGCAGA | 0.0731
AGGTGTAG | -0.129
CGAGTAAA | 0.0265
